Out of some 360,000 compounds screened, about 25,000 (6.9%) were called active. Inconclusive means that the source gave no clear call. Such entries were picked first, then a sample of the others. Calls follow the shape of the dose curve; as a rule, active = well fitted inhibition curve with a large enough effect; inconclusive = small, poorly fitted or top-dose-only effect; inactive = flat fitted curve, though single readings scatter. Potencies of inconclusive entries are doubtful fits and often do not repeat.
The compounds below were run against Luciferin 4-monooxygenase (Photinus pyralis) (UniProt P08659) (assay: qHTS profiling assay for firefly luciferase inhibitor/activator using purifed enzyme and Km concentrations of substrates (counterscreen for miR-21 project)). Conditions: purified FLuc, luminescence inhibition; activity change, negative = inhibition: at 57.5 µM (top of the series).
In short: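 Biochemical qHTS of compounds, final roughly 60 µM downward over six points, against 10 nM purified firefly luciferase using Km concentrations of substrates (10 uM D-luciferin, 10 uM ATP) in Tris acetate pH 7.5 buffer; luminescence output.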
Also: nearly all actives have a fitted effect of over 55% in size.
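For activity change, negative = inhibition in this document: plate controls were vehicle for no effect and reference inhibitor for full effect.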
Potency is read from the fitted curve at half-maximal effect; tags tell the direction and shape of the fitted curve.

UniProt P08659, sequence (P08659 whole entry, looked up): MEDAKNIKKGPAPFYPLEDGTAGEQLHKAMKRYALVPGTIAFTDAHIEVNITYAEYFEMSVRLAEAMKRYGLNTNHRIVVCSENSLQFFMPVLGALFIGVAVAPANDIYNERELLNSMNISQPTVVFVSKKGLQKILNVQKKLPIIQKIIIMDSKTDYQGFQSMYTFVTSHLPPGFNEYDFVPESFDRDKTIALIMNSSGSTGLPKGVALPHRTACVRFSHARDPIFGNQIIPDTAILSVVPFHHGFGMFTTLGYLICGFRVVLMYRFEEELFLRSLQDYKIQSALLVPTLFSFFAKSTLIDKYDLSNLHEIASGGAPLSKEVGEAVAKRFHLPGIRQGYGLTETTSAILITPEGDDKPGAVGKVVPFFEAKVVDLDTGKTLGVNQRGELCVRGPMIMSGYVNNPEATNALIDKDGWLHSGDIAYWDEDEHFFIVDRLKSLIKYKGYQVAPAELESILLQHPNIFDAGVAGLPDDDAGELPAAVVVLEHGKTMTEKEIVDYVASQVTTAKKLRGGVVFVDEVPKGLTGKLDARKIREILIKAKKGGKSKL

**Q.** With `COC(=O)Cn1cnc2c(cnn2-c2ccc(OC)cc2)c1=O` as the compound, how does the Potency read?
**A.** The Potency was inconclusive: 23.9 µM [inhibitor, partial curve, poor fit].

**Q.** How did the “activity change, negative = inhibition” value turn out when `CN(C)C1(CNC(=S)Nc2ccccc2C(F)(F)F)CCCCC1` was run?
**A.** The value was inactive: -0.496%.

**Q.** For `Cc1ccccc1C(=O)OC1OC(=O)C(Cl)=C1Nc1ccc(C(=O)O)cc1` (stereo not given), which Potency is on record?
**A.** Its Potency is inconclusive: 15.1 µM [inhibitor, partial curve, poor fit].

**Q.** With `C/C(=N\OCC(=O)Nc1ccccc1Br)c1cccs1` as the compound, how does the Potency read?
**A.** The Potency was inconclusive: 37.9 µM [inhibitor, single point].

**Q.** Which Potency does the source give for `COc1ccccc1-c1noc(-c2ccc(NC(C)C)c([N+](=O)[O-])c2)n1` here?
**A.** The Potency was inconclusive: 26.9 µM [inhibitor, single point].

**Q.** For `O=C(Nc1nnc(C2CC2)s1)C1Cc2ccccc2CN1C(=O)c1ccco1` (stereo not given), which Potency is on record?
**A.** Its Potency is inconclusive: 23.9 µM [inhibitor, single point].

**Q.** With `Cc1ccc(-n2nnnc2C(Cl)(Cl)c2nnnn2-c2ccc(C)cc2)cc1` as the compound, how does the Potency read?
**A.** Its Potency is inconclusive: 7.57 µM [inhibitor, partial curve].

**Q.** For `COc1ccc(/C=C/C(=O)NC(=S)Nc2cc([N+](=O)[O-])ccc2O)cc1OC`, which Potency is on record?
**A.** The Potency was active: 7.57 µM.

**Q.** Which Potency does the source give for `CCOc1ccccc1Oc1coc2cc(OC)ccc2c1=O` here?
**A.** The Potency was inconclusive: 37.9 µM [inhibitor, single point].

**Q.** Which Potency does the source give for `COc1ccc2c(c1)NC(c1cccnc1)=NC(c1ccc(F)cc1)=N2` here?
**A.** The Potency was inconclusive: 37.9 µM [inhibitor, partial curve, poor fit].

**Q.** For `CC(=O)NS(=O)(=O)c1cccnc1Nc1ccc(Cl)c(Cl)c1`, which Potency is on record?
**A.** The Potency was inconclusive: 37.9 µM [inhibitor, single point].

**Q.** Which Potency does the source give for `O=S(=O)(c1ccc(N2CCCC2)cc1)C(F)(F)F` here?
**A.** The Potency was inconclusive: 26.9 µM [inhibitor, partial curve, poor fit].

**Q.** For `CN(C)C(=O)COc1ncnc2sc(-c3ccccc3)cc12`, which Potency is on record?
**A.** The Potency was inconclusive: 26.9 µM [inhibitor, single point].

**Q.** With `Cc1ccc(C)c(N2CCN(Cc3csc(C)c3)CC2)c1` as the compound, how does the “activity change, negative = inhibition” value read?
**A.** The value was inactive: -5.53%.

**Q.** `O=C(Nc1ccccc1)c1ccc[nH]1` was tested. Which Potency did it give?
**A.** The Potency was inconclusive: 37.9 µM [inhibitor, partial curve, poor fit].

**Q.** For `Nc1ccccc1S(=O)(=O)NCCCCc1ccccc1`, which “activity change, negative = inhibition” value is on record?
**A.** The value was inactive: -2.03%.

**Q.** For `O=C(O)c1cc(NN=C2c3ccccc3-c3ccccc32)ccc1Cl`, which Potency is on record?
**A.** The Potency was inconclusive: 19 µM [inhibitor, partial curve].

**Q.** How did the Potency turn out when `CCOc1ccc(-n2c(=S)sc3c(=O)[nH]c(SCC(=O)C(C)(C)C)nc32)cc1` was run?
**A.** The Potency was inconclusive: 26.9 µM [inhibitor, partial curve].

**Q.** With `O=C(c1cccs1)N1CCCc2cc(NS(=O)(=O)c3ccc(F)cc3F)ccc21` as the compound, how does the Potency read?
**A.** The Potency was inconclusive: 23.9 µM [inhibitor, partial curve, poor fit].

**Q.** With `COc1ccc(C(=O)N/N=C/c2ccc(OC)c(CSc3ccccn3)c2)cc1` as the compound, how does the Potency read?
**A.** Its Potency is inconclusive: 26.9 µM [inhibitor, partial curve].

**Q.** With `COc1ccc(NC(=O)c2cncc(Br)c2)cc1S(=O)(=O)N1CCCCC1` as the compound, how does the “activity change, negative = inhibition” value read?
**A.** The value was inactive: -0.802%.

**Q.** For `COc1cccc(C(=O)Nc2ccccc2-c2nnc(-c3cccc(OC)c3)o2)c1`, which Potency is on record?
**A.** Its Potency is active: 2.69 µM.

**Q.** How did the Potency turn out when `O=C(Nc1ccc(C2CC2(Cl)Cl)cc1)c1cccc([N+](=O)[O-])c1` (stereo not given) was run?
**A.** The Potency was active: 12 µM.

**Q.** For `Cc1ccc(-c2nc(NCCN3CCOCC3)c3ccccc3n2)cc1`, which Potency is on record?
**A.** Its Potency is inconclusive: 16.9 µM [inhibitor, partial curve, poor fit].

**Q.** With `CCOC(=O)Cc1cc(=O)n2[nH]c(-c3ccccc3)cc2n1` as the compound, how does the Potency read?
**A.** Its Potency is inconclusive: 26.9 µM [inhibitor, single point].

**Q.** `O=C(O)CC(C(=O)O)n1nc(-c2ccccc2)cc1-c1ccccc1` (stereo not given) was tested. Which Potency did it give?
**A.** The Potency was inconclusive: 23.9 µM [inhibitor, partial curve, poor fit].

**Q.** Which Potency does the source give for `Cc1ccc2c(Cl)c(C)c(N3CCCCC3)nc2n1` here?
**A.** The Potency was inconclusive: 21.3 µM [inhibitor, partial curve].

**Q.** For `Cc1ccc(-n2c(SCC(N)=O)nc3c(oc4ccccc43)c2=O)cc1C`, which “activity change, negative = inhibition” value is on record?
**A.** The value was inactive: -0.985%.

**Q.** With `C=CCSc1nc2sc3c(c2c(=O)n1CC)CCc1ccccc1-3` as the compound, how does the Potency read?
**A.** Its Potency is inconclusive: 13.5 µM [inhibitor, partial curve].

**Q.** For `Cc1ccc(CSc2ncnc3ccccc23)cc1`, which Potency is on record?
**A.** The Potency was inconclusive: 26.9 µM [inhibitor, single point].

**Q.** Which Potency does the source give for `Cc1nc2c(ccc3nc(NC(=O)Cc4cccc5ccccc45)sc32)s1` here?
**A.** Its Potency is inconclusive: 37.9 µM [inhibitor, single point].

**Q.** `CCOc1ccc(/C=C/c2nc(C#N)c(NCCc3ccccc3)o2)cc1` was tested. Which “activity change, negative = inhibition” value did it give?
**A.** The value was inactive: 1.58%.

**Q.** `CCSc1nnc(NC(=O)CCc2ccc(OC)cc2)s1` was tested. Which Potency did it give?
**A.** The Potency was inconclusive: 6.01 µM [inhibitor, partial curve, poor fit].

**Q.** Which “activity change, negative = inhibition” value does the source give for `O=C(O)c1cccc(NS(=O)(=O)c2cccc(C(=O)Nc3ccccc3[N+](=O)[O-])c2)c1` here?
**A.** Its value is inactive: 6.13%.

**Q.** How did the Potency turn out when `NC(=O)c1cccnc1Nc1ccccc1Cl` was run?
**A.** Its Potency is inconclusive: 16.9 µM [inhibitor, partial curve, poor fit].
